# In the supplement of paper PMC11417369:
# ± gives the standard deviation of the averaged measurements. The list shows a part of the results.
# Test system: PfAP2-G AP2 domain (GST-tagged)
# Assay: gcPBM binding intensity (ln(normalized median fluorescence intensity)); higher = stronger DNA binding
# In short: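 Plasmodium falciparum DNA-binding domains carrying a GST tag were expressed in E. coli and applied for 1 h, at about 25 μg on average, to an Agilent 4 × 180k array. The array held primer-extended double-stranded 36-bp intergenic genomic probes together with negative controls, and binding took place in 1× PBS with 1% milk, 0.2 mg/ml BSA, 0.5% salmon testes DNA and 0.03% Triton X-100. An Alexa488 anti-GST antibody detected bound protein, and the array was scanned at 488 nm. Binding intensity is taken as the highest Masliner-normalised natural-log median intensity across replicate spots of either probe orientation.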
row,Sequence,gcPBM binding intensity (ln)
1,ATATATATATATAATACACACTAAAGTAACATAATA [CACACA_site5580],10.2 ± 0.21
2,TACGGGAAAGATAAGAAACACACGGAAAATTAGACG [CACACA_site1661],10.21 ± 0.035
3,TTTTTTAATACATATGCATGTTCAAGTACGAAAAAA [TGCATGCA_site641],10.9 ± 0.56
4,TATTAAACTTGACACACACACACACGCATATATAAA [CACACA_site6496],10.3 ± 0.26
5,TAATAAATATATTGAAGTACTTATAAAAAGCAATAT [XGTACX_site6262],11.3 ± 0.79
6,TACGCAACCAAAAGTTGTACTAATTTTTTTTTTTTG [XGTACX_site7432],11.2 ± 0.62
7,ATATATTTTATACATACACACATATAAATATTTTTT [CACACA_site7780],10.065 ± 0.007
8,GGAACAAATAATATCACACATATATATATATATATA [CACACA_site5670],9.95 ± 0.42
9,CCACTTAAAATAAAAAGTACATACAGGTGTTATACA [XGTACX_site8124],11.4 ± 0.82
10,AAAAAAAAAAATATATTAAAATAAAAAATATTAACA [GTGCAC_negctrl_site13],9.43 ± 0.13
11,TACACCCACCCACATACACACACATACACATATATA [CACACA_site8503],10.3 ± 0.35
12,TATATTTATCCATACAAGAAAAAAAAAAAAAAAATA [CACACA_negctrl_site1328],9.76 ± 0.29
13,TAATGAGGAAATACAGCACACGTTATTACACTTTTC [CACACA_site5399],10.05 ± 0.085
14,AAATTGGTTCATCAATGTACATGTAAAATAAATCAA [XGTACX_site4795],11.1 ± 0.63
15,TATTTGATCTAAAGAGCATGCAAAAACGAACAAGAT [TGCATGCA_site136],10.3 ± 0.26
16,ATATCGTTATTTTTATGTACTAAAATATTTAATTAT [XGTACX_site3516],11.2 ± 0.73
17,CACATATAAATATTAACACACATAATGAATTATATA [CACACA_site2741],9.915 ± 0.035
18,ATATATAAAAATTAGGTGCATTAAATTAAAATATAT,10 ± 0.26
19,CAAATAAAAACAAAACGTACGAATAAATTATTGTTA [XGTACX_site5136],10.9 ± 0.42

row,Sequence,gcPBM binding intensity (ln)
1,AGCATATTATTTTAGGTGCACTTGAAATGTGTTAAC,10.3 ± 0.23
2,TTTAAATAAAATATTACACACTTAGAAAGATATATA [CACACA_site7684],9.88 ± 0.028
3,TTTTTTTTTTATTGTACATGCAAAAAATTCCACACA [TGCATGCA_site279],11.1 ± 0.6
4,TTTATATAAATTTTTTGTACACAAGTAAAAACGCGT [XGTACX_site2459],11.2 ± 0.64
5,ACACAAATAAATATAACATATATATTATATTATATT [CACACA_negctrl_site710],9.86 ± 0.13
6,CAAACAAACAGACACACACACACACCCAAAAATGAT [CACACA_site2430],10.1 ± 0.12
7,ATAAAATATATATATATAAAAATAAATACATAAATA [GTGCAC_negctrl_site157],9.805 ± 0.064
8,TTTTTTTTTTTTTTTTTACACACTTTATTCAAACAA [CACACA_site9360],9.82 ± 0.49
9,TCAATATTAAATTATTGTACATGTATGTATATATAT [XGTACX_site3861],10.9 ± 0.52
10,TAACAATAACTTTATACACACATAATATATATATAT [CACACA_site3543],9.96 ± 0.085
11,TGTATTTATAATAAAACACACATTTTTAATGTGCTC [CACACA_site4908],9.73 ± 0.042
12,TTTTTTTTTTTTTTTTTTTTCACATGTGTGGAAAAA [GTGCAC_negctrl_site352],9.8 ± 0.45
13,TTAAAATATACATAAACACACACAAAACGTTTAAGA [CACACA_site8267],10.1 ± 0.18
14,AATTTAAAATATATAGTACACACGTGAACACAAATA [CACACA_site416],11.4 ± 0.72
15,AGGATATATAAGTATACACACATATTTATATTTATA [CACACA_site6239],9.875 ± 0.035
16,TTTTAACGTAAAACATTGATGATATAAAAAATAGGA [GTGCAC_negctrl_site540],10.1 ± 0.18
17,TATACTCATATTTTTACACACATATTTTTTCATATA [CACACA_site5412],10.1 ± 0.2
18,CATATACTTCTGTGCACACGAATATTTTTCTTCTTC [CACACA_site1407],10.5 ± 0.19
19,TGTTGTCCTAATTCTACACACAATGGTTTATTAAAA [CACACA_site2648],11 ± 0.79

row,Sequence,gcPBM binding intensity (ln)
1,TTTGTGTTTATAAATTGTACAAAGGTGCAAGAAGAA [XGTACX_site2159],11 ± 0.61
2,AAAAAAAAAAAAAACACACACACACCCATAAATATA [CACACA_site151],10.2 ± 0.16
3,AAGTGCATATTATTCACACATAATAATTGTATACCT [CACACA_site5965],9.95 ± 0.014
4,TTCAAGCCCTTCTGCTTACACACAGTAATTATTGTG [CACACA_site2952],10.35 ± 0.099
5,TATTTTTATTATATGGTGCATATATACATACATATA,10 ± 0.22
6,AAAAAAAAAAAACACACACACAATAGTATATAAATC [CACACA_site956],10 ± 0.11
7,ATATGATCATAAAACACACACACAAAAAAAAAAAAA [CACACA_site1806],9.88 ± 0.42
8,TAAAAATAATTTGCATGTACATAGGTCGATGTATTT [XGTACX_site1357],11 ± 0.49
9,ATCCACTTTTTGAAGACACACACAAAAAAAAAAAAA [CACACA_site8818],10.2 ± 0.47
10,AATTAGATGGATAAATGTACATAATGTGAATATATT [XGTACX_site86],11 ± 0.4
11,ATATAGAAAATGCATACACACTTTATAAATATATTT [CACACA_site6553],9.945 ± 0.092
12,AGATATTTATTGAGTGCATGTTATAAAGGGAAAAAA [TGCATGCA_site88],10.2 ± 0.25
13,TGTAAATTATAACGTGCACACATATTTAAAATGAAA [CACACA_site8915],10.5 ± 0.34
14,ACGAAGATTTATCTTGCACACGCAAAAAAAAAAAAA [CACACA_site7933],9.86 ± 0.27
15,AACATTTCCTTTCTGTGTACATATAAACCCATCTAT [XGTACX_site2071],11.5 ± 0.73
16,ATATAAATAAAATATACACACATAAATATAACGACA [CACACA_site1637],10.1 ± 0.17
17,ATTCATAAACGTGTGTTAATATGAATTTAAACATAA [XGTACX_negctrl_site213],9.67 ± 0.014
18,ATTATATTTTGTAAATGTACATTTATATATTTTGTA [XGTACX_site1226],10.9 ± 0.61
19,AAAAAAAAAAAAAAAGCATGCACATATTATTTTTTT [TGCATGCA_site416],10.19 ± 0.035
